Measured values from US20240294593A1 (Genentech, published 2024).

Columns and labels:
human PD-1-His [1] = target: T1, human PD-1-His (human, UniProt Q15116 part only, limits assumed); experiment: Octet
T1 construct: Antigen of the Octet assays; not shown: His tag

human PD-1-His [2] = target: T1, human PD-1-His; experiment: Octet; remark: listed apart in the source
T1 sequence (Q15116 25-167 limits assumed): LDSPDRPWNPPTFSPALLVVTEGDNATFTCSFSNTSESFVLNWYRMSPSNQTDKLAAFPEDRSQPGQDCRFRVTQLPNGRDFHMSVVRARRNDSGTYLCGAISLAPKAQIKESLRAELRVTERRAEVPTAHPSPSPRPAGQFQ

B1: XENP30046 ([NC]PD-1-targeted IL-15/Rα-Fc comprising mAb C_H1_L1.1 and IL-15(N4D/N65D) variant) (Fc fusion)
chain: ITCPPPMSVEHADIWVKSYSLYSRERYICNSGFKRKAGTSSLTECVLNKATNVAHWTTPSLKCIRGGGGSGGGGSGGGGSGGGGSGGGGS[not shown - about 120 residues with changes]EPKSSDKTHTCPPCPAPPVAGPSVFLFPPKPKDTLMISRTPEVTCVVVDVKHEDPEVKFNWYVDGVEVHNAKTKPREEEYNSTYRVVSVLTVLHQDWLNGKEYKCKVSNKALPAPIEKTISKAKGQPREPQVYTLPPSREEMTKNQVSLTCDVSGFYPSDIAVEWESDGQPENNYKTTPPVLDSDGSFFLYSKLTVDKSRWEQGDVFSCSVMHEALHNHYTQKSLSLSPGK
heavy: EVQLVESGGGLVQPGGSLRLSCAASGFTFSSFGMHWVRQAPGKGLEWVSYISSGSSIIYYADSVKGRFTISRDNAKNSLYLQMNSLRAEDTAVYYCARGGRLVWSPDYWGQGTLVTVSSASTKGPSVFPLAPSSKSTSGGTAALGCLVKDYFPEPVTVSWNSGALTSGVHTFPAVLQSSGLYSLSSVVTVPSSSLGTQTYICNVNHKPSNTKVDKKVEPKSCDKTHTCPPCPAPPVAGPSVFLFPPKPKDTLMISRTPEVTCVVVDVKHEDPEVKFNWYVDGVEVHNAKTKPREEQYNSTYRVVSVLTVLHQDWLNGKEYKCKVSNKALPAPIEKTISKAKGQPREPQVYTLPPSREQMTKNQVKLTCLVKGFYPSDIAVEWESNGQPENNYKTTPPVLDSDGSFFLYSKLTVDKSRWQQGNVFSCSVMHEALHNHYTQKSLSLSPGK
light: DIVMTQSPDSLAVSLGERATINCKSSQSLLHSGNQKNYLTWYQQKPGQPPKLLIYWASTRESGVPDRFTGSGSGTDFTLTISSLQAEDVAVYYCQNDYSYPFTFGSGTKLEIKRTVAAPSVFIFPPSDEQLKSGTASVVCLLNNFYPREAKVQWKVDNALQSGNSQESVTEQDSKDSTYSLSSTLTLSKADYEKHKVYACEVTHQGLSSPVTKSFNRGEC
notes: scIL-15/Rα x Fab format
In the case of B1, the koff (human PD-1-His [1]) is reported as 0.000488 s⁻¹ and the kon (human PD-1-His [1]) is reported as 90400 M⁻¹ s⁻¹.

B2: H1_L1.136 (XENP30445) (Fc fusion)
chain 1: ITCPPPMSVEHADIWVKSYSLYSRERYICNSGFKRKAGTSSLTECVLNKATNVAHWTTPSLKCIRGGGGSGGGGSGGGGSGGGGSGGGGS[not shown - about 120 residues]EPKSSDKTHTCPPCPAPPVAGPSVFLFPPKPKDTLMISRTPEVTCVVVDVKHEDPEVKFNWYVDGVEVHNAKTKPREEEYNSTYRVVSVLTVLHQDWLNGKEYKCKVSNKALPAPIEKTISKAKGQPREPQVYTLPPSREEMTKNQVSLTCDVSGFYPSDIAVEWESDGQPENNYKTTPPVLDSDGSFFLYSKLTVDKSRWEQGDVFSCSVMHEALHNHYTQKSLSLSPGK
chain 2: EVQLVESGGGLVQPGGSLRLSCAASGFTFSSFGMHWVRQAPGKGLEWVSYISSGSSIIYYADSVKGRFTISRDNAKNSLYLQMNSLRAEDTAVYYCARGGRLVWSPDYWGQGTLVTVSSASTKGPSVFPLAPSSKSTSGGTAALGCLVKDYFPEPVTVSWNSGALTSGVHTFPAVLQSSGLYSLSSVVTVPSSSLGTQTYICNVNHKPSNTKVDKKVEPKSCDKTHTCPPCPAPPVAGPSVFLFPPKPKDTLMISRTPEVTCVVVDVKHEDPEVKFNWYVDGVEVHNAKTKPREEQYNSTYRVVSVLTVLHQDWLNGKEYKCKVSNKALPAPIEKTISKAKGQPREPQVYTLPPSREQMTKNQVKLTCLVKGFYPSDIAVEWESNGQPENNYKTTPPVLDSDGSFFLYSKLTVDKSRWQQGNVFSCSVMHEALHNHYTQKSLSLSPGK
chain 3: DIVMTQSPDSLAVSLGERATINCKSSQSLLHSGNQKNYLTWYQQKPGQPPKLLIYWASTRESGVPDRFTGSGSGTDFTLTISSLQAEDVAVYYCQNDYTYPFTFGSGTKLEIKRTVAAPSVFIFPPSDEQLKSGTASVVCLLNNFYPREAKVQWKVDNALQSGNSQESVTEQDSKDSTYSLSSTLTLSKADYEKHKVYACEVTHQGLSSPVTKSFNRGEC
notes: also called mAb C H1_L1.136 x IL-15(D30N/N65D)
B2 gave a Kd (human PD-1-His [2]) of 2.02 nM, a koff (human PD-1-His [2]) of 0.000121 s⁻¹ and a kon (human PD-1-His [2]) of 59800 M⁻¹ s⁻¹.

Where two headings read alike, the source gives them in different places.
